Measured values: PMC4336329 (PLoS ONE, 2015)
Among all 310,000 compounds or so, about 2,200 (0.71%) showed an effect of 50% or more. Effects have a minus sign here. This is one part of the list.

target: human ether-à-go-go-related gene (hERG) potassium channel (human, UniProt Q12809); assay: primary screen, population patch clamp on CHO cells stably expressing hERG
Sequence (Q12809 whole entry, looked up): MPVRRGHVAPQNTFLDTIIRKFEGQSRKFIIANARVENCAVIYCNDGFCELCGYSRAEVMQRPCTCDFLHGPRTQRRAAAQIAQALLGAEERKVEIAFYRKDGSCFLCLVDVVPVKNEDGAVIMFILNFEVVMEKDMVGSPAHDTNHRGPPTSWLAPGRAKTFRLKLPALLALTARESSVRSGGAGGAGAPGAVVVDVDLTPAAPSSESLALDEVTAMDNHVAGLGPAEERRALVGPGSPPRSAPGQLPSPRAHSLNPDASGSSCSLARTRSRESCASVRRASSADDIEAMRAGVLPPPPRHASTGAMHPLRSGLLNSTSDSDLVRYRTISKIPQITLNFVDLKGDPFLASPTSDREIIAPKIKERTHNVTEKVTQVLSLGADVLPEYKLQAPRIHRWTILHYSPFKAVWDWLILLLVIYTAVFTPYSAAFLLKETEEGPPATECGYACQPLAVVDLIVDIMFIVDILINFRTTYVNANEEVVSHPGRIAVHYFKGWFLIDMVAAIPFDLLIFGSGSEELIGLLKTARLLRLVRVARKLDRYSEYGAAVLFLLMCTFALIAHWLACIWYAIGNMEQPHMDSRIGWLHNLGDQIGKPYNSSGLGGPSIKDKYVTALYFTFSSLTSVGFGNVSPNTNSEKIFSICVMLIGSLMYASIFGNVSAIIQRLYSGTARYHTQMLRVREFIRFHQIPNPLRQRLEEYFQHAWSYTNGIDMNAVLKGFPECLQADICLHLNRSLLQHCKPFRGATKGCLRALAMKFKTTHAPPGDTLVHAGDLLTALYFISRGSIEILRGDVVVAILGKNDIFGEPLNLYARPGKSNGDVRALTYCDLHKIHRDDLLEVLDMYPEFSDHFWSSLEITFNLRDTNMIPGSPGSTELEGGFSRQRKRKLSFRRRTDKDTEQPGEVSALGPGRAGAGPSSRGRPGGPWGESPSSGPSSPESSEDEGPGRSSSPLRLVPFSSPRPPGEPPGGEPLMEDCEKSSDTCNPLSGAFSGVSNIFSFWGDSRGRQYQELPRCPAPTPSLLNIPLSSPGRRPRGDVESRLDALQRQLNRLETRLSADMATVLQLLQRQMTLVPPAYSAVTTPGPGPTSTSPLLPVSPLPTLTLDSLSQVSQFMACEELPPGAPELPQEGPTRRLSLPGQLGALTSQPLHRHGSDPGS

Structure (SMILES) | hERG current change (%, negative = inhibition) at 1uM [%]
COc1ccc(C(=O)Nc2cccc3ccccc23)cc1 | 7.82
Cc1cc(C)c(C)c(S(=O)(=O)N2CCC(C(=O)NC3=NCCS3)CC2)c1C | 4.55
CCCn1cc(CN2CCC(n3nccc3NC(=O)c3ccc4c(c3)OCO4)CC2)c(C)n1 | 10
CCOc1cc(Br)c(C(C)NC(=O)c2cccnc2)cc1OCC (stereo not drawn) | 0.331
CCCOC(=O)c1ccc(Oc2cn[nH]c2-c2ccc(OCC(=O)NN)cc2O)cc1 | 8.32
Cc1cc(NS(=O)(=O)c2ccc(NC(=O)c3cc(-c4ccccc4Cl)nc4ccccc34)cc2)no1 | 2.9
COc1ccc(Cl)cc1N(CC(=O)N/N=C/c1ccc(OC(C)C)cc1)S(=O)(=O)c1ccc(C)c([N+](=O)[O-])c1 | 11.1
CCOc1ccc(N(C(C)C(=O)NC(C)CC)S(C)(=O)=O)cc1 (stereo not drawn) | 13.5
COCCN(C(=S)Nc1c(C)cccc1C)C(C)c1ccco1 (stereo not drawn) | 12.9
Cc1ccc(C)c(N(CC(=O)NCCSCc2ccco2)S(C)(=O)=O)c1 | 7.62
O=C(CSc1n[nH]c(=O)n1C1CC1)c1c[nH]c2ccccc12 | 9.49
Cc1noc(C)c1S(=O)(=O)N1CCC(C(N)=O)CC1 | 10
CSc1nnc(-c2cc(Br)ccc2N=Cc2c(C)[nH]n(-c3ccccc3)c2=O)c(=O)[nH]1 | 2.57
C#CCNC(=O)/C=C/c1ccc(OC)cc1 | 7.68
CCOC(=O)C1C(c2ccc(O)c(OC)c2)NC(=O)NC1(O)C(F)(F)F (stereo not drawn) | 12.3
Cn1c(N)c(C(=O)COC(=O)C23CC4CC(CC(C4)C2)C3)c(=O)n(C)c1=O | 7.15
CN(C)CCC(=O)NCC1OCCc2ccccc21 (stereo not drawn) | 5.63
COc1ccc(NC(=O)c2ccc(Cl)c(NC(=O)c3ccncc3)c2)cc1 | 5.41
COc1cccc(-n2c(C)cc(/C=C3\C(=N)N4N=C(CC(=O)N5CCOCC5)SC4=NC3=O)c2C)c1 | 2.93
Cc1cccn2c(CN3CCSCC3)c(C(=O)N3CCOCC3)nc12 | -1.36
Cc1cc(F)ccc1NC(=O)C1CCN(C(=O)Nc2ccccc2)CC1 | 9.12
O=C(NC(Cc1ccccc1)c1ccc2c(c1)OCCCO2)c1ccccc1F (stereo not drawn) | -9.55

Structure (SMILES) | hERG current change (%, negative = inhibition) at 1uM [%]
COc1cc(/C=N/NC(=O)c2cc(-c3cccc(Br)c3)nc3ccccc23)cc(OC)c1O | 14.5
COc1ccc(NC(=O)c2cccs2)cc1NC(=O)c1ccco1 | 5.06
C=CCOC(=O)c1[nH]c2c(c1C)C(=O)CC(c1cc(OC)c(OC)c(OC)c1)C2 (stereo not drawn) | -19.4
COc1cccc2c(=O)cc(C)n(CC(=O)Nc3cccc(C)c3)c12 | -6.13
CCOc1ccc(/C=N/NC(=O)c2c(C)n(C)c3ccc(OC)cc23)cc1 | 5.94
Clc1cc2nc(-c3cccnc3Cl)[nH]c2cc1Cl | 21
COC(=O)c1ccc(CSc2ncnc3c2oc2ccccc23)o1 | -2.27
Cc1ccc(Oc2ccc(NC(=O)c3ccco3)cc2)cc1 | -0.0758
O=Cc1c(-c2ccccc2)nc2ccccn12 | 7.44
COC(=O)C1NN=C(C(=O)c2ccc(Br)cc2)C1c1cccc(Br)c1 (stereo not drawn) | 7.02
CCC(=O)N1CCc2cc(S(=O)(=O)N3CCN(C(=O)c4ccco4)CC3)ccc21 | 4.69
CCOC(=O)c1ccc(N=c2sc(C(=O)OC)cc(=O)n2-c2ccc(C(=O)OCC)cc2)cc1 | 9.64
COc1ccccc1/C=N/NC(=O)CC(=O)Nc1ccc(Cl)c(Cl)c1 | 6.07
COc1c(/C=N/NC(=O)[C@H]2C[C@@H]2c2ccccc2)c(CCN(C)C(C)=O)cc2c1OCO2 | 4.48
O=c1[nH]c2cc(Cl)ccc2c(O)c1-c1cccc(Oc2ccccc2)c1 | 6.2
COc1ccc(NC(=O)CSc2nc3c(c(=O)n(C)c(=O)n3C)n2C)c(OC)c1 | 13
O=S(=O)([O-])CCC[n+]1c(SCCCS(=O)(=O)O)sc2ccc(Cl)cc21 | 3.55
CC(C)(C)c1ccc(OC(=O)Cn2c(C(F)(F)F)nc3ccccc32)cc1 | 4.35
CCOc1cccc(/C(O)=C2/C(=O)C(=O)N(Cc3cccnc3)C2c2ccco2)c1 (stereo not drawn) | 1.86
CCc1ccc(N2CC(C(=O)OCc3nc4ccsc4c(=O)[nH]3)CC2=O)cc1 (stereo not drawn) | 1.64
CC1CCN(CCOc2ccccc2-c2ccccc2)CC1.O=C(O)C(=O)O | -8.4
O=S(=O)(Nc1ccc(-c2ccc(N3CCOCC3)nn2)cc1)c1cc(Cl)ccc1Cl | 4.11

Structure (SMILES) | hERG current change (%, negative = inhibition) at 1uM [%]
O=C(c1cccc(F)c1F)N1CCCC1 | 21.2
Cc1sc2ncnc(N3CCN(S(=O)(=O)c4ccc(Br)cc4)CC3)c2c1C | 5.06
NC(=S)c1cc2cc(Br)ccc2oc1=O | 12.4
CCN1C(=O)/C(=C/c2nc3ccccc3c(=O)[nH]2)c2ccccc21 | 10.5
COC(=O)c1ccccc1NC(=O)c1noc2c1CCC2 | 3.69
CCOC(=O)c1ccc(S(=O)(=O)N2CCN(C(=O)C3CSC4(C)CCC(=O)N34)CC2)cc1 (stereo not drawn) | 5.77
O=C1OC(Cc2ccccn2)C(O)=C1C1=NCCCN1 (stereo not drawn) | -2.79
CCn1c(C(O)c2ccc(C)cc2)nc2ccccc21 (stereo not drawn) | -1.37
O=C(/C=C/c1ccccc1)OCCN=C1NS(=O)(=O)c2ccccc21 | 5.06
CC(C)n1nnc2ccccc2c1=O | 12.8
O=C(O)C1CC(=O)N(C2CCCCC2)C1c1ccccc1 (stereo not drawn) | 11.1
Cc1cc(C)cc(SCc2noc(C(=O)NCCN(C)C)c2C(=O)NCCN(C)C)c1 | 8.94
Cc1cccc(-n2cc(-c3ccccc3)c3c(=O)[nH]cnc32)c1 | 7.63
O=C(COC(=O)c1ccc(Cl)nc1)NCc1ccc2c(c1)OCO2 | 10.2
O=C(c1cccs1)N1CCC(c2nc(-c3ccc(S(=O)(=O)N4CCOCC4)cc3)no2)CC1 | -40.3
CO/N=C/NC(=O)NOCc1ccc(Cl)cc1Cl | 6.43
O=C(CCC(=O)c1cccs1)NCc1cccc(Cl)c1 | 7.01
Cc1cc(/C=N/n2cnnc2)c(C)n1-c1ccc2ncccc2c1 | -7.25
Cc1ccc(NC(=O)COC(=O)CCC2CCCC2)c(Br)c1 | 16
COc1ccc(/C=C2\SC(=S)N(CCCC(=O)NC3CCCC3)C2=O)cc1OC | 0.0267
Cc1cccc(OCCCSc2nc3ccccc3[nH]2)c1 | 7.86
CCOC(=O)N1CCN(C(=O)COc2ccc(S(=O)(=O)NC3CCCCC3)cc2C)CC1 | -0.53

Structure (SMILES) | hERG current change (%, negative = inhibition) at 1uM [%]
CSCCC(NC(=O)COc1ccccc1)C(=O)O (stereo not drawn) | 9.67
COc1ccc(N2C(=O)NC(=O)/C(=C\c3ccc([N+](=O)[O-])s3)C2=O)cc1 | 14
COc1ccc(C(=O)c2ccccc2)c(OCC(=O)NC2CC2)c1 | 16.9
Cc1ccccc1NC(=O)CSCc1cc(=O)n2ccsc2n1 | 13.7
CC(NC(=O)COC(=O)CCNC(=O)c1ccco1)C12CC3CC(CC(C3)C1)C2 (stereo not drawn) | 6.68
Cc1ccc(NCc2nnc(SCC(=O)c3ccccc3)o2)c(C)c1 | 14.9
CC(=NCCc1c(C)[nH]c2ccc(OC(F)(F)F)cc12)C1=C(O)CC(c2ccccc2)CC1=O (stereo not drawn) | 11.9
Cc1cccc(N2CCN(Cc3cnc(Cl)s3)CC2C)c1 (stereo not drawn) | 5
O=C(N/N=C/c1ccc(OC(=O)c2cccs2)cc1)c1ccccn1 | 8.31
C=CCNC(=S)Nc1ccc(C)cc1[N+](=O)[O-] | 3.74
CC(C(=O)NC1(C#N)CCCCC1)N(C)CC(=O)Nc1ccc(Cl)c(Cl)c1 (stereo not drawn) | 8.32
COc1cc(/C=N\NC(=O)CC(=O)NCCc2ccccc2)ccc1O | 7.16
COC(=O)[C@@H](NC(=O)NCCC1=CCCCC1)C(C)C | 9.52
COc1cccc(C(=O)N(Cc2ccccc2)Cc2cc3cc4c(cc3[nH]c2=O)OCCO4)c1 | 5.94
Cn1nnnc1SCC(=O)Nc1ccccc1N1CCCCC1 | -2.11
CCOC(=O)c1c(CS(=O)(=O)c2ccccc2)n(C)c2cc(Br)c(O)cc12 | 6.21
Cc1ccc(NC(=O)c2ccc(OC(=O)COc3ccc(Cl)c(C)c3)cc2)cc1 | 9.75
CCOC(=O)C1(Cc2cccc(OC)c2)CCCN(Cc2cc(OC)c(O)c(OC)c2)C1 (stereo not drawn) | 5.61
CCc1cccc(C)c1NC(=O)CNCc1ccccc1.O=C(O)C(=O)O | 8.15
COC(=O)C1=C(c2ccc3ccccc3c2)C[C@@H]2CC[C@H]1N2C(=O)NC1CC1 | 14.4
S=c1[nH]cnc2scc(-c3ccc(Cl)cc3)c12 | 10.5
